# Test results: PubChem BioAssay (NCATS)
# The inconclusive results got no clear call from the source; some entries with a clear call stand among them for comparison. Potencies of inconclusive entries are doubtful fits and often do not repeat. Active and inactive are the calls of the source. Calls come from the whole dose curve; as a rule, active = well fitted curve in the direction sought with a large enough effect; inconclusive = small, poorly fitted or top-dose-only effect, or another doubt; inactive = no such curve, though single readings can be large; an effect the other way counts as inactive or inconclusive.
# How the values were obtained:
# [1] = qHTS of pediatric cancer cell lines to identify multiple opportunities for drug repurposing: Primary screen for RD cells (AID 1347104); note: nearly all actives have a fitted effect of over 55% in size
# In short: (§1)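 Following a 5-hour attachment period, cells at 500-1,000/well received compounds and were cultured for 48 hours. CellTiter-Glo was added and luminescence read to estimate viable, metabolically active cells.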
# [2] = qHTS of pediatric cancer cell lines to identify multiple opportunities for drug repurposing: Primary screen for Rh30 cells (AID 1347107); note: nearly all actives have a fitted effect of over 75% in size
# In short: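 Viability after 48 h compound treatment at 37C, 500-1,000 cells/well, read as ATP luminescence with CellTiter-Glo. Primary screens used 11-point (MIPE, 0.78 nM-46 µM) or 8-point (NPC, 0.59 nM-46 µM) final concentrations; follow-up screens used 11-point dilutions.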
# [3] = qHTS of pediatric cancer cell lines to identify multiple opportunities for drug repurposing: Primary screen for Rh41 cells (AID 1347108); note: nearly all actives have a fitted effect of over 70% in size
# In short: as §1
# [4] = qHTS of pediatric cancer cell lines to identify multiple opportunities for drug repurposing: Primary screen for MG 63 (6-TG R) cells (AID 1347105); conditions: MG 63 (6-TG R) viability, CellTiter-Glo, 48 h; series mostly up to 46 µM; note: nearly all actives have a fitted effect of over 50% in size
# In short: as §1
# [5] = qHTS of pediatric cancer cell lines to identify multiple opportunities for drug repurposing: Primary screen for control Hh wild type fibroblast cells (AID 1347106); note: nearly all actives have a fitted effect of over 55% in size
# In short: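 Cells (500-1,000/well) in growth media were settled 5 h at 37 degrees C, then given compounds for 48 h. Viability was read as CellTiter-Glo luminescence. Primary runs used MIPE at 11 points (0.78 nM-46 µM) and NPC at 8 points (0.59 nM-46 µM); follow-ups used 11 points.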
# [6] = qHTS of pediatric cancer cell lines to identify multiple opportunities for drug repurposing: Confirmatory screen for SK-N-MC cells (AID 1347111);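 note: cells exposed to compound for 48 h before the readout; nearly all actives have a fitted effect of over 70% in size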
# In short: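 SK-N-MC cells at 500-1,000 cells/well in growth media were pre-incubated 5 h, then exposed to compounds at 11-point dilutions for 48 h at 37 degrees C, 5% CO2. Viability was read as CellTiter-Glo luminescence.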
# Potency is the fitted concentration of half-maximal effect; tags give direction and shape of the fitted curve.
compound,measurement,setting,value
O=Nc1c(-c2c(O)[nH]c3cc(Br)ccc23)[nH]c2ccccc12,Potency,[1],active: 16.6 µM
same,Potency,[2],active: 18.7 µM
same,Potency,[3],active: 14.8 µM
COc1ccc2c3c1OC1C[C@@H](O)C=C[C@@]31CCN(C)C2 (some centres undefined),Potency,[1],"inconclusive: 11.8 µM [cytotoxic, partial curve, poor fit]"
same,Potency,[2],"inconclusive: 13.2 µM [cytotoxic, partial curve, poor fit]"
CN1CC(=O)N/C1=N/C(=O)Nc1cccc(Cl)c1,Potency,[1],inactive
same,Potency,[3],inactive
CCN(CC)CCNC(=O)COc1ccc(OC)cc1,Potency,[4],inactive
CCCC(=O)O[C@]1(C(=O)CCl)[C@@H](C)C[C@H]2[C@@H]3CCC4=CC(=O)C=C[C@]4(C)[C@@]3(F)C(=O)C[C@@]21C,Potency,[1],"inconclusive: 16.8 µM [cytotoxic, partial curve, poor fit]"
same,Potency,[3],"inconclusive: 29.9 µM [cytotoxic, single point]"
Cc1ccc(C(=O)Nc2cccc(C(F)(F)F)c2)cc1Nc1nc(-c2cccnc2)nc2c1cnn2C,Potency,[1],active: 14.8 µM
same,Potency,[3],active: 18.7 µM
CC(C(=O)O)c1ccc2c(c1)[nH]c1ccc(Cl)cc12 (centres undefined),Potency,[4],inactive
CN(C)c1ccc(N=NS(=O)(=O)O)cc1,Potency,[4],inactive
O=C(Nc1ccccc1-c1cn2c(CN3CCNCC3)csc2n1)c1cnc2ccccc2n1,Potency,[1],active: 33.2 µM
same,Potency,[5],"inconclusive: 33.2 µM [cytotoxic, single point]"
same,Potency,[2],active: 23.5 µM
same,Potency,[3],active: 20.9 µM
CCOC1OC(=O)C[C@H]1NC(=O)[C@@H]1CCCN1C(=O)[C@@H](NC(=O)c1ccc(N)c(Cl)c1)C(C)(C)C (some centres undefined),Potency,[1],"inconclusive: 1.32 µM [cytotoxic, full curve]"
same,Potency,[3],"inconclusive: 14.8 µM [cytotoxic, partial curve]"
Cc1c(NC(=O)c2ccc(C(C)(C)C)cc2)cccc1-c1cn(C)c(=O)c(Nc2ccc(C(=O)N3CCOCC3)cc2)n1,Potency,[1],"inconclusive: 20.9 µM [cytotoxic, partial curve]"
same,Potency,[2],"inconclusive: 14.8 µM [cytotoxic, partial curve]"
same,Potency,[3],"inconclusive: 18.7 µM [cytotoxic, partial curve]"
Cc1coc2ccccc2c1=O,Potency,[4],inactive
CCN1/C(=C/C=C/c2sc3ccccc3[n+]2CC)Sc2ccccc21,Potency,[1],active: 1.16 µM
same,Potency,[5],"inconclusive: 9.2 µM [cytotoxic, single point]"
same,Potency,[2],active: 3.26 µM
same,Potency,[3],active: 1.64 µM
Cc1cc(C)c(/C=C2\C(=O)Nc3ccccc32)[nH]1,Potency,[1],inactive
same,Potency,[3],inactive
COc1cc2nc(-c3ccc(N4CCN(C)CC4)cc3)nc(NCCN3CCOCC3)c2cc1OC,Potency,[1],active: 0.0418 µM
same,Potency,[5],active: 3.32 µM
same,Potency,[2],active: 0.0469 µM
same,Potency,[3],active: 0.296 µM
same,Potency,[6],"inconclusive: 0.185 µM [cytotoxic, full curve, poor fit]"
c1ccc2sc(SSc3nc4ccccc4s3)nc2c1,Potency,[1],inactive
same,Potency,[5],"inconclusive: 1.64 µM [cytotoxic, partial curve, poor fit]"
Nc1c(CC(=O)O)cccc1C(=O)c1ccc(Br)cc1,Potency,[4],inactive
CCN(CC)c1ccc(C(=C2C=CC(=[N+](CC)CC)C=C2)c2cc(S(=O)(=O)O)ccc2S(=O)(=O)[O-])cc1,Potency,[1],"inconclusive: 13.3 µM [cytotoxic, partial curve]"
same,Potency,[5],"inconclusive: 11.9 µM [cytotoxic, partial curve]"
same,Potency,[2],"inconclusive: 16.8 µM [cytotoxic, partial curve]"
same,Potency,[3],"inconclusive: 18.8 µM [cytotoxic, partial curve]"
Cc1[nH]c(=O)c(C#N)cc1-c1ccncc1,Potency,[4],"inconclusive: 0.0061 µM [cytotoxic, full curve, poor fit]"
same,Potency,[5],"inconclusive: 37.2 µM [cytotoxic, single point]"
CN(c1ncccc1CNc1nc(Nc2ccc3c(c2)CC(=O)N3)ncc1C(F)(F)F)S(C)(=O)=O,Potency,[4],active: 9.35 µM
same,Potency,[5],active: 20.9 µM
same,Potency,[2],"inconclusive: 7.43 µM [cytotoxic, partial curve]"
same,Potency,[6],"inconclusive: 5.85 µM [cytotoxic, full curve, poor fit]"
O=C(/C=C/c1ccccc1)NCCO,Potency,[2],inactive
CN(C)c1ccc(C(=C2C=CC(=[N+](C)C)C=C2)c2ccccc2)cc1,Potency,[4],active: 0.106 µM
same,Potency,[5],active: 23.7 µM
same,Potency,[2],active: 0.473 µM
same,Potency,[3],active: 0.0944 µM
CCCCCCCCCCCCOCCO,Potency,[2],inactive
